In all, about 81,000 sequences were measured (“one-hybrid fitness for binding parS DNA”: median about -0.17, highest 2% from about 0.51 on). This is one part of the list.
B1: Caulobacter ParB omega fusion; a variant is named by its letters at X, in order, B8GW30 (parent)
chain: MESVVVGEPGMSEGRRGLGRGLSALLGEVDAAPAQAPGEQLGGSREAPIEILQRNPDQPRRTFREEDLEDLSNSIREKGVLQPILVRPSPDTAGEYQIVAGERAWRAAQRAGLKTVPIMVRELDDLAVLEIGIIENVQRADLNVLEEALSYKVLMEKFERTQENIAQTIGKSXSHVANXMRLLXLPDEVQSYLVSGELTAXHARAIAAAADPVALAKQIIEGGLSVRETEALARKAPNLSAGKSKGGRPPRVKDTDTQALESDLSSVLGLDVSIDHRGSTGTLTITYATLEQLDDLCNRLTRGI

Variants of: B1
Assay: one-hybrid fitness for binding parS DNA (scaled: cognate 1, non-cognate 0); higher = stronger binding
Conditions: with parS DNA site
Method in brief: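 Pre- and post-selection plasmids were Illumina-sequenced, three replicate libraries were pooled, and any variant with under 10 reads was removed. The libraries were Caulobacter ParB with four specificity codons randomised, selected in E. coli USO through a HIS3 reporter whose site is 19 bp from the promoter. Cells grew 48 hours at 37°C on M9 without histidine, with 0.1 mM IPTG and 5 mM 3-AT. Fitness is the log change in variant-to-wild-type read ratio, rescaled against cognate and non-cognate.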

one-hybrid fitness for binding parS DNA, 0.929:
RIST

one-hybrid fitness for binding parS DNA, ≤ 0.2:
RAGL
KYHP
YPAG
AQEC
DVTS
WAKM
GLEE
WRRY
PACL
GPSG
TSSS
RKSK
GYRT
TNVG
YNSL
LTPT
TYIG
LRFF
NPDI
RTWK
LIYH
KVLR
PDSM
KNTC
TKKT
HRCQ
RDPR
VMDM
WQHG
WTYC
MSIN
CEKS
PYDI
NATM
QWPV
MPIS
VRVC
PKRH
FGAA
IWSK
RRCH
GINA
KQKA
ASRE
IRHT
IRHP
GARW
AEWH
HPQR
SYKQ
CRTS
VDRE
TGIP
GSKR
GQLT
IHLR
PGLY
EHRN
FSSC
KCGN
QRDL
DPTR
TPTC
CEVR
AKQT
RTKL
KMAC
GASD
TNQE
PRQY
VTQC
MCAT
YLIL
NYHY
QPWC
VHST
LSEG
TIHS
APSK
RFPN
ISWC
TSNR
KRKL
QANT
GRFE
ILVY
AYVC
KLVV
NHFR
CRSG
DLMH
TCYV
AVRL
SSFE
HGQT
KTTE
RPWS
WANC
KARE
MYRF
VNLE
HYSG
LLWK
DTHA
TYAC
LLGS
SENV
SDWM
EGQC
ACRN
VMNA
LLMY
QSED
YCYF
KDTC
RAQR
QTCG
LKIC
PRQT
IKEV
INLG
TFYF
MHIY
CTAF
TPSC
NGGV
TGCD
EWLR
KKCN
CCGT
PNAD
FVWC
TTVI
CCVE
THAS
HSDM
THHC
LDQT
MTHS
MICR
LRWY
LSSD
TMCG
FRLG
IDQR
LLVL
VMES
VPEG
GSLF
PTYQ
IHSC
DCWS
PIPD
DIAV
TSGI
IANN
VMSC
HPGQ
KFLG
MRHF
KDLS
GQYL
MAAI
QSFV
IMER
GDIY
PLAV
VTGF
WLVC
THSP
FRHS
QLKL
IDGG
FGKV
YIWR
SLCS
VGYK
SHSN
AEML
LRES
WYIT
IMVG
MSNA
QVIT
CRAT
EIRF
QPVD
VGLI
IYES
EKYG
DSYR

one-hybrid fitness for binding parS DNA, 0.213:
ELMC

one-hybrid fitness for binding parS DNA, 0.582:
RTMA

one-hybrid fitness for binding parS DNA, 0.956:
RMES

Reference: a collection of fitness landscapes (doi:10.1016/j.celrep.2020.107928)
